Target: T1, ASCL1 (Homo sapiens, UniProt P50553)
T1 construct: the synthetic DNA encoding the hASCL1 open reading frame was subcloned in-frame into the multiple cloning site; expressed in transfected cells; host or cells: HEK-293T, lentiviral transduction with pLMEGPA-hASCL1-NFlag
T1 sequence (P50553 1-236): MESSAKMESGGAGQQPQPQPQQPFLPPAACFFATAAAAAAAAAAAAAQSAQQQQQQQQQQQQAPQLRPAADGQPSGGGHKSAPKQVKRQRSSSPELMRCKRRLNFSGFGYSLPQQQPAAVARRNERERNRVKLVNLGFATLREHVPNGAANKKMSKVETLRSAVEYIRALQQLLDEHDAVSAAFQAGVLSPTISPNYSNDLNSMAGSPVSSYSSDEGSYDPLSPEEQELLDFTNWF
Assay: ASCL1 immunohistochemistry on FFPE sections with anti-ASCL1 clone SC72.2
Type: binding
Details: antibody 10 μg/ml
Method: IHC was performed essentially as follows. Planar sections of formalin fixed and paraffin embedded (FFPE) tissues were cut and mounted on glass microscope slides. After xylene de-paraffinization 5 μm sections were pre-treated with Antigen Retrieval Solution (Dako) for 20 mins. at 99° C., cooled to 75° C. and then treated with 0.3% hydrogen peroxide in PBS followed by Avidin/Biotin Blocking Solution (Vector Laboratories). FFPE slides were then blocked with 10% horse serum in 3% BSA in PBS buffer and incubated with a primary anti-ASCL1 antibody (clone SC72.2), diluted to 10 μg/ml in 3% BSA/PBS, for 30 mins. at room temperature. The FFPE slides were incubated with biotin-conjugated horse anti-mouse antibody (Vector Laboratories), diluted to 2.5 μg/ml in 3% BSA/PBS, for 30 mins. at room temperature followed by incubation in streptavidin-HRP (ABC Elite Kit; Vector Laboratories). Chromogenic detection was developed with 3,3′-diaminobenzidine (Thermo Scientific) for 5 mins. at room temperature and tissues were counterstained with Meyer's hematoxylin (IHC World), washed with alcohol and immersed in xylene. Sections were then viewed by brightfield microscopy and ASCL1 expression was noted.
PDX tumors were stained by IHC (FIG. 12) and ASCL1 protein expression by IHC correlates with the expected ASCL1 mRNA expression based on microarray results.

- ASCL1 expression detected by IHC (293 cells engineered to express ASCL1 (293-ASCL1)): detected in the nucleus
- ASCL1 expression detected by IHC (naïve 293 cells): not in naïve 293 cells
B1: SC72.2: murine anti-ASCL1 antibody, VL SEQ ID NO: 521, VH SEQ ID NO: 523 (antibody, listed as Mus musculus, V domains shown)
VH: QVQLQQSGAELVRPGASVTLSCKASGYTFIDYEMHWVKQTPVHGLEWIGAIDPETGGTTYNQNFKGKATLTADKSSNTAYMELRSLTSGDSAVYYCSRGGLDYWGQGTTLTVSS
VL: DVVMTQTPLTLSVTIGQPASISCKSSQSLLDSDGKTYLNWLLQRPGESPKLLIYLVSKLDSGVPDRFTGSGSGTDFTLKISRVEAEDLGVYYCLQATHFPQLTFGAGTKLELK
